Data on 3 molecules can be found in patent publication EP4524159A1, “ANTIBODY AND USE THEREOF” (priority 2022, dated 2023).

Data set [1] can be described thus: Drug : antibody ratio (DAR) of antibody-vc-MMAE conjugates by hydrophobic HPLC. The conditions noted are these: for DAR2 (%): share of DAR2 species; for DAR4 (%): share of DAR4 species; for DAR6 (%): share of DAR6 species; for DAR8 (%): share of DAR8 species. As to the method: The specific operation was to reduce each antibody and the control antibody CD27H10 (27H10 antibody in WO2018112334A1) with a 2-fold molar amount of […] (TECP) at 4 °C for 1 hour. A 7-fold molar amount of vcMMAE was then added for ligation at 4-25 °C for 1 h, and then the reaction mixture was dialyzed against 1 × PBS pH 8.0 and filtered for sterilization. Drug : antibody ratio (DAR) was detected by hydrophobic kurtosis with HLPC, and the molecular coupling results are shown in Table 14. Table 14 DAR values of antibody-drug conjugates
The humanized antibodies 1CP-125, 1CP-117 and 1CP-152 were subjected to linking to form ADC, and the linking process was the same as in example 18. Table 18 DAR values of antibody-drug conjugates

For another data set, the system named is MCF7. Kind of data set: In vitro killing by chimeric antibody-vc-MMAE conjugate (CellTiter-Glo, 120 h). The data set is classed as cell-based. To be noted: MCF7 (120 h), cells that do not express CDCP1. As to the method:
The inhibition activity of antibody on tumor cell growth was calculated by graphpad fitting based on the signal value and antibody concentration, and the results are shown in FIG. 5 and Table 15. Table 15 IC50 value of anti-CDCP1 chimeric antibody -vcMMAE conjugate on tumor cells

[2] abbreviates: chimeric antibody-vc-MMAE conjugates, hydrophobic HPLC.

B1: 5B8-MMAE (conjugate)
VH: EVQLKESGGGLVQPGGSLRISCATSGLTFTHYHMSWVRQPPGKAPEWLAIIRNKAYGYTTDYSASVRGRFTISRDDSQSILYLQMNTLRAEDSATYYCVREGGYGYDGTFAYWGQGTTVTVSS
VL: EIVLTQSPASLAVSLGQRATISCRASESVDNYGISFMSWFQQKPGQPPKLLIYAASNQGSGVPDRFSGSGSGTDFSLNIHPMEEDDTAMYFCQQSKEVPRTFGGGTKLEIK
With B1, the DAR in data set [1] (setting [2]) is reported as 3.85. In addition, in data set [1] (hydrophobic HPLC), the “DAR2 (%)” value was found to be 30.01%, the “DAR4 (%)” value is on record as 38.18%, the “DAR6 (%)” value was determined as 12.42% and the “DAR8 (%)” value came out at 12.16%.

B2: 8C9-MMAE (conjugate)
VH: EVQLKESGGGLVQPGGSLRISCATSGLTFTHYHMSWVRQPPGKAPEWLAIIRNKAYGYTTDYSASVRGRFTISRDDSQSILYLQMNTLRPEDSATYYCVREGGYGYDGTFAYWGQGTTVTVSS
VL: DIQMTQSPASLAVSLGQRATISCRASESVDNYGISFMNWFQQKPGQPPKLLIYAASNQGSGVPDRFSGSGSGTDFSLNIHPMEEDDTAMYFCQQSKEVPRTFGGGTKLEIK
For orientation: IC50 means the concentration needed to halve the response being measured. Consider B2, for which, in data set [1] (setting [2]), the DAR was 3.44. For the same molecule, in data set [1] (hydrophobic HPLC), the “DAR2 (%)” value is reported as 34.27%, the “DAR4 (%)” value came to 34.56%, the “DAR6 (%)” value is listed as 12.32% and the “DAR8 (%)” value stood at 7.73%. Besides, the IC50 in the data set on MCF7 was > 200 nM.

B3: 1CP-125-MMAE: humanized antibody 1CP-125 linked to vc-MMAE (conjugate)
heavy: QVQLVQSGAEVKKPGASVKVSCKASGYNFISYWLHWVRQAPGQGLEWMGGIYPGNTDTTYNQKFKGRVTMTADTSTSTVYMELSSLRSEDTAVYYCIRYDYDRGMDYWGQGTLVTVSS[left out - human IgG1 constant region]
light: DIQMTQSPSSLSASVGDRVTITCRASEDIYYRLAWYQQKPGKAPKLLISGATALETGVPSRFSGSGSGKDYTFTISSLQPEDIATYYCQHYWNIPWTFGQGTKVEIKRTVAAPSVFIFPPSDEQLKSGTASVVCLLNNFYPREAKVQWKVDNALQSGNSQESVTEQDSKDSTYSLSSTLTLSKADYEKHKVYACEVTHQGLSSPVTKSFNRGEC
With B3, the DAR in data set [1] (humanized antibody-vc-MMAE conjugates, as printed in Table 19 (HCC1806)) is given as 4.3; in data set [1] (humanized antibody-vc-MMAE conjugates, as printed in Table 20 (HCT116)), 4.3.
